Laboratory results from PMC6796939.
Results are given in words; binding and its absence hold for the method and conditions named. Binding seen in cells or lysates may run through a third protein. Some binding calls cover weakened binding; strength is not graded here. Where a sequence is shown, tags or fusion partners need not be part of it.

Key:
Experiment in all cases: co-IP; S2 cells co-transfected with tagged constructs; lysed in NP-40 buffer (50 mM Tris-Cl pH 8.0, 0.1 M NaCl, 1% NP-40, 10% glycerol, 1.5 mM EDTA) at 4 °C; primary antibody (anti-V5, anti-HA, anti-Flag) 2 h, protein A/G 1 h; western blot; some panels with or without Hh (Hh plasmid and Hh conditioned medium), some with dsRNA against ptc 5'UTR to knock down endogenous Ptc
PtcWTΔC7-V5 (Drosophila) = target: T1, PtcWTΔC7-V5 (Drosophila) (UniProt P18502)
T1 sequence: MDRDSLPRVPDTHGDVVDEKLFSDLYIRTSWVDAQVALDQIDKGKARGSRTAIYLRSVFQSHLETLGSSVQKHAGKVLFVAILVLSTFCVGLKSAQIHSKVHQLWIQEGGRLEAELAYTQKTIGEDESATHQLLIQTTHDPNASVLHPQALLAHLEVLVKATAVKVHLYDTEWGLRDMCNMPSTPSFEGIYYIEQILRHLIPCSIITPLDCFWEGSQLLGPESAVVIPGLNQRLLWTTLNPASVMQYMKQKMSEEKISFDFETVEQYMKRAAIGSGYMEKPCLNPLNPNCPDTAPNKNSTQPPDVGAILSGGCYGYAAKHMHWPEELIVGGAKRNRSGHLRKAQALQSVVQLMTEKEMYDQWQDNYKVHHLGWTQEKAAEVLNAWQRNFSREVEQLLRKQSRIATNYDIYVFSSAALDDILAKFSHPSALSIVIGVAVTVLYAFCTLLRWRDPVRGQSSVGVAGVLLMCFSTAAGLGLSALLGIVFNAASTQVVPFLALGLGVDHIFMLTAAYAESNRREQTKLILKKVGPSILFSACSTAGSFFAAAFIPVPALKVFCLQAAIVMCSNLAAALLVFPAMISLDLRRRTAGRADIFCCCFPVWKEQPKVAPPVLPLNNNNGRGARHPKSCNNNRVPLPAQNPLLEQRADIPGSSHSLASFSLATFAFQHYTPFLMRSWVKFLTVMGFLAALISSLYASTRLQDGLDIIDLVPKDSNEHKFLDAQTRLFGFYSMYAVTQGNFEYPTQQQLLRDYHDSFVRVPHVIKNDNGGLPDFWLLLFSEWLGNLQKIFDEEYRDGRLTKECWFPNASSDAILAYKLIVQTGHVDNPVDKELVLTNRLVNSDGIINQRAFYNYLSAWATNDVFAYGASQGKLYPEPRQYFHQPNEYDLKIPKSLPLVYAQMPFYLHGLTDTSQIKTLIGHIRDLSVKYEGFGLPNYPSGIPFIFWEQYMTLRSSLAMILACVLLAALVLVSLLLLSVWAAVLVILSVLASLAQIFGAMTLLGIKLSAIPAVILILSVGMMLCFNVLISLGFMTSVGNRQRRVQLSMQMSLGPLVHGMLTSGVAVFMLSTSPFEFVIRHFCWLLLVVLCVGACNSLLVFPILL

Ptc-C7-V5 (Drosophila) = target: T2, Ptc-C7-V5 (Drosophila) (UniProt P18502)
T2 sequence: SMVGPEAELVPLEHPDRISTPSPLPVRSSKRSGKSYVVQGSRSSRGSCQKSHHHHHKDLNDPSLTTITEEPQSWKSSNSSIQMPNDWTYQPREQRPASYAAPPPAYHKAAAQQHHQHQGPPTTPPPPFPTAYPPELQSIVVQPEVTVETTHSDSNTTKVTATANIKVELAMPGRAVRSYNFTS

PtcWT-6xmyc (Drosophila) = target: T3, PtcWT-6xmyc (Drosophila) (UniProt P18502)
T3 sequence: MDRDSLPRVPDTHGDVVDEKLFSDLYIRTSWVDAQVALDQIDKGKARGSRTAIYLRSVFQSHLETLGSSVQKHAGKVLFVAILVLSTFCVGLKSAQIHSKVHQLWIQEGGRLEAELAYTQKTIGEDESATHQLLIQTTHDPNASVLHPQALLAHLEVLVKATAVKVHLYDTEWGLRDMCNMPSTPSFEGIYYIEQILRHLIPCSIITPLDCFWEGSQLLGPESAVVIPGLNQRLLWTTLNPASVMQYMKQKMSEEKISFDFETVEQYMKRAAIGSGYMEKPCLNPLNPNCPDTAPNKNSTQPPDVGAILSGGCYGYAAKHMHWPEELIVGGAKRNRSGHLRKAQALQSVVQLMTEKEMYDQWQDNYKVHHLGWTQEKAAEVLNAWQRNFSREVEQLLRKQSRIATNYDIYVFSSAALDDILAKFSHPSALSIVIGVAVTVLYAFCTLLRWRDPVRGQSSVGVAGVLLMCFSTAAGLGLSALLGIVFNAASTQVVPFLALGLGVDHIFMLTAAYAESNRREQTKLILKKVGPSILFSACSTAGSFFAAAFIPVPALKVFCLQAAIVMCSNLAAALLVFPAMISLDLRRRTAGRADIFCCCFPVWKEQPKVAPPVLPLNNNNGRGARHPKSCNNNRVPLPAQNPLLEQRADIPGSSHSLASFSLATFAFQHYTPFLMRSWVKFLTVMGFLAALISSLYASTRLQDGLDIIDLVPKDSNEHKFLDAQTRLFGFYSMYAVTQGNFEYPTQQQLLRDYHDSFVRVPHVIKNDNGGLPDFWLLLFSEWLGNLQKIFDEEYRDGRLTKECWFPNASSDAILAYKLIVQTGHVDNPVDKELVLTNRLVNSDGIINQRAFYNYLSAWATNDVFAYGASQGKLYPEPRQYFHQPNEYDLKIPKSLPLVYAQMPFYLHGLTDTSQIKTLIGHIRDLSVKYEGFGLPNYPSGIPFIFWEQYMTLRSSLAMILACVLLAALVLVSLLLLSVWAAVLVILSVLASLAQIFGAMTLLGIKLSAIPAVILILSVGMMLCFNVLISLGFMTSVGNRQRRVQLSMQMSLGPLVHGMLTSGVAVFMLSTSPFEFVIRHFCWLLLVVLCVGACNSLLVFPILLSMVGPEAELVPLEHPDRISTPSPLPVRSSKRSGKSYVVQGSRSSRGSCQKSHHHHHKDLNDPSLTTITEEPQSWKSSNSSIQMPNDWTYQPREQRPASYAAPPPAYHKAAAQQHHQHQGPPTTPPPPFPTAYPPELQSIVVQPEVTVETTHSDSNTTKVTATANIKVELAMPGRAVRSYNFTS

## HA tagged PKAc (3XHA-PKAc) (from UniProt P12370 1-353) (enzyme)
PtcWTΔC7-V5 (Drosophila)
  binding: binds
Ptc-C7-V5 (Drosophila)
  binding: no binding
PtcWT-6xmyc (Drosophila)
  binding: binds
